The structures appear in SMILES notation. Hit rate of the full screen: of about 150,000 compounds, about 540 (0.36%) showed an effect of 50% or more. The list shows a part of the results.

For the test, the system named is Plasmodium falciparum. Description: Primary screen in NF54 nanoGlo assay, in single point, at 2uM, 72h; a lower Z score goes with more inhibition. The format is functional, Erythrocyte. The conditions noted are these: timepoint 72 hour.
Turning to `COc1cccc(N2C(=O)c3cc(-c4ccco4)nn3C[C@@]2(C)C(=O)NCc2ccc(Cl)cc2)c1`, the “% Inhibition” value was -4% and the Z score came out at 0.71.
For `CCCn1ccnc1-c1nccn1-c1cccc(-c2ccnc(C)n2)c1`, in that order: -12% and 2.27.
For the compound `C[C@H](NC(=O)c1nn(CCO)c2c1CN(C(=O)c1cn3ccsc3n1)CC2)c1ccccc1`, the “% Inhibition” value was -20% and the Z score is 2.59.
In the case of `Cc1nc(CN2CCCN(C(=O)c3scnc3C)CC2)oc1C`, the “% Inhibition” value is -5% and the Z score is listed as 0.6.
On to `Cc1ccccc1S(=O)(=O)Nc1cccc2[nH]ccc12`, for which the “% Inhibition” value worked out at 12% and the Z score is reported as -1.38.
On to `CCOc1cc(N2CCOCC2)c(OCC)cc1NC(=O)[C@H]1CC(=O)N(c2ccc(C)cc2)C1`, for which the “% Inhibition” value was -7% and the Z score was found to be 0.68.
With `CC(=O)Nc1cc(Cl)ccc1NC(=O)c1cn[nH]c1`, the “% Inhibition” value is recorded as 3% and the Z score is -0.47.
Regarding `Cc1ccc2cc1Oc1cccc(c1)CO[C@H]1CCN(C(=O)c3c[nH]c(=O)c(Cl)c3)C[C@H]1NC(=O)CN(C)C2=O`, the “% Inhibition” value is listed as -12% and the Z score was found to be 1.59.
Consider `Cc1nn(CC(=O)N(C)Cc2cnn(C)c2C)cc1Br`, for which the “% Inhibition” value is -17% and the Z score was 2.13.
For `COc1ccc(-c2ccc(N3CCN(C(=O)CN(CCN(C)C)C(=O)c4ccccc4C)CC3)nn2)cc1OC`, in that order: -4% and 0.56.
As to `Cc1nnc([C@H](C)NC(=O)C2(O)CCCC2)s1`, the “% Inhibition” value is listed as -4% and the Z score was 0.61.
For `CC(=O)N[C@@H](C)C1=CCCN(Cc2cccc(F)c2C(F)(F)F)C1`, the “% Inhibition” value was -16% and the Z score stood at 1.55.
Turning to `COc1ccc(CNC(=O)c2ccc(NCc3ccc(OC)cc3)c(S(=O)(=O)N3CCOCC3)c2)cc1`, the “% Inhibition” value is listed as -10% and the Z score is on record as 1.62.
For `CCc1ncnc(N2C[C@@H]3CN(C4CCCCC4)C[C@]3(C(=O)O)C2)c1F`, the “% Inhibition” value is given as -12% and the Z score is 1.44.
For `CC12C(=O)N(c3ccc(F)cc3)C(=O)C1C2(c1ccccc1)c1ccccc1` (configuration not stated), in that order: -2% and 0.28.
For the compound `Cc1nccn1[C@H]1[C@@H]2OC[C@@H](O2)[C@@H](NCc2ccccc2Cl)[C@@H]1O`, the “% Inhibition” value amounted to 5% and the Z score is given as -0.74.
For `Cc1cc(CNC(=O)NCCOc2ccc(F)cc2F)no1`, in that order: 0% and -0.04.
For `O=C(Nc1ncc(CCO)s1)[C@@H]1CCCN1C(=O)Cc1cccs1`, in that order: 29% and -1.09.
For `CC[C@H]1CC[C@H](C(=O)N2C[C@H]3CC[C@@H](C2)NC3)CC1`, in that order: -3% and 0.68.
Turning to `CN(C)C(=O)N(Cc1cccc(Br)c1)C1CCOCC1`, the “% Inhibition” value is reported as -1% and the Z score was 0.08.
In the case of `CN1C[C@@H]2CCC[C@H]1CN(S(=O)(=O)c1cn[nH]c1)C2`, the “% Inhibition” value is -3% and the Z score worked out at 0.53.
Regarding `C[C@](O)(CNCc1ccc2cn[nH]c2c1)c1cccc(Cl)c1`, the “% Inhibition” value is -6% and the Z score is listed as 0.7.
Consider `COc1cccc(C(=O)N2CCN(c3ncnc4c3CCC4)CC2)c1`, for which the “% Inhibition” value is recorded as -7% and the Z score was 0.78.
For `Cc1ccc(CNC(=O)c2cc3cc(OCc4ccccc4)ccc3n2Cc2ccccc2)o1`, in that order: 37% and -0.85.
Take `CCCn1c(C)ccc(-c2noc(CCCC(=O)N3CCOCC3)n2)c1=O`: the “% Inhibition” value is 31% and the Z score was -0.67.
For `O=C(NCCc1ccc(F)cc1)c1cnn2c1OCCC2`, in that order: -7% and 1.16.
Consider `Cc1ccc(N(C)Cc2c(C)nn(CCO)c2C)c(C)c1`, for which the “% Inhibition” value is on record as -5% and the Z score is on record as 0.55.
With `C(=C\c1cc(/C=C/c2ccccc2)n2nnnc2n1)/c1ccccc1`, the “% Inhibition” value worked out at 33% and the Z score is -4.3.
As for `O=C(OCCn1cncn1)c1cccc(F)c1Cl`, the “% Inhibition” value was -7% and the Z score is 0.94.
Regarding `O=C(N[C@@H]1C[C@H]1C1CC1)N1CCOC2(CCC2)C1`, the “% Inhibition” value is 0% and the Z score is given as 0.04.
As to `Fc1ccc(-c2nc3c(-c4ccc(Cl)cc4)cnn3c3c2CCCCC3)cc1`, the “% Inhibition” value worked out at 9% and the Z score is -0.89.
On to `Cc1cc(C(=O)Nc2ccc(S(=O)(=O)NCCC(C)C)cc2)c(C)n1-c1nccs1`, for which the “% Inhibition” value is recorded as -12% and the Z score came out at 1.4.
For the compound `CS(=O)(=O)NCCNC(=O)c1ccc(Br)cc1O`, the “% Inhibition” value is on record as -4% and the Z score was 0.93.
For the compound `N#CCCNc1ccc(Br)cc1`, the “% Inhibition” value is -1% and the Z score stood at 0.12.
In the case of `CC(C)c1cc(C(=O)N[C@@H](C)c2nccs2)on1`, the “% Inhibition” value is on record as -13% and the Z score was determined as 2.37.
In the case of `CCc1ccc([C@@H]2CN(C(=O)c3cn[nH]c3)CCO2)cc1`, the “% Inhibition” value is given as -1% and the Z score turned out to be 0.14.
Turning to `O=C(Cc1ccc2c(c1)OCC2)NCCN1CCOCC1`, the “% Inhibition” value was determined as 0% and the Z score is -0.04.
`Cc1c(CN2C[C@@H]3CC[C@H]2CN(C2Cc4ccccc4C2)C3)cnn1C`: the “% Inhibition” value is listed as -14% and the Z score is 1.38.
On to `CCn1c(CN[C@](C)(C(=O)OC)C2CC2)nc2cc(S(=O)(=O)N(C)C)ccc21`, for which the “% Inhibition” value is recorded as 11% and the Z score is reported as -1.58.
In the case of `FC1(F)CC[C@H](c2nc(Cc3ccc4cn[nH]c4c3)no2)C1`, the “% Inhibition” value was 0% and the Z score is recorded as 0.03.
As to `COc1ccc(C2CCCN2C(=O)C2CCCN(S(C)(=O)=O)C2)cc1OC` (configuration not stated), the “% Inhibition” value is reported as -3% and the Z score was 0.44.

For the origin of these results see ChEMBL document CHEMBL4888484, “Replenishing the malaria drug discovery pipeline: Screening and hit evaluation of the MMV Hit Generation Library 1 (HGL1) against asexual blood stage Plasmodium falciparum ,using a nano luciferase reporter read-out” (2022).
